Data: ChEMBL document CHEMBL1201862, “PubChem BioAssay data set” (2004)
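Method: 48-hour compound exposure of cells in 96-well plates, five concentrations, linear interpolation of endpoints. Here, GI50 denotes the concentration required for 50% inhibition of growth.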 Active and inactive are the calls of the source. Rule as the data show it: active = GI50 up to about 1.1 µM and inactive = higher.

tested on: NCI-H322M; assay: NCI anticancer screen, dose series, 48 h

Row | Structure (SMILES) | GI50
1 | COc1ccc(C2C(C#N)=C(S)N(C3OC(CO)C(O)C(O)C3O)C(c3ccccc3)=C2C(C)=O)cc1 (configuration not stated) | inactive: > 100 µM
2 | CC(=O)/C=C/c1ccc(C2CC(C)=Nc3c(ccc4c3C(=O)c3ccccc3C4=O)N2)cc1 (configuration not stated) | inactive: 19.2 µM
3 | C[N+](C)=C/C=C(\Cl)c1ccc2ccccc2c1 | inactive: 17.6 µM
4 | O=C(Nc1c(O)[nH]c(=S)[nH]c1=O)c1ccc2ccccc2n1 | inactive: > 100 µM
5 | N#Cc1c(-c2ccc(Cl)cc2)c(C#N)c(=O)n(NS(=O)(=O)c2ccccc2)c1-c1ccccc1 | inactive: > 25 µM
6 | Cc1cn(CCCCCCC2=NCCCN2)c(=O)[nH]c1=O | inactive: > 100 µM
7 | CN1CCN(c2ccc3nc(-c4cc(O)c5c(nc(CO)n5C)c4O)[nH]c3n2)CC1 | inactive: 37.1 µM
8 | C/C(CC(=O)NC1=CC=C(NC(=O)C/C(C)=N\Nc2ccccc2)CC1)=N/Nc1ccccc1 | inactive: > 100 µM
9 | COc1ccc(/C=C2\C(=O)N(C(=O)Cc3ccccc3)N=C2C)cc1OC | inactive: > 100 µM
10 | CCc1cc(=O)n(/C(C)=C/c2ccccc2)n1C | inactive: > 100 µM
11 | COc1cc(OC)c(OC)cc1/C=C/c1cnnc2ccccc12 | inactive: > 10 µM
12 | CCO/C(CCn1[nH]c(=O)c(Cl)c(Cl)c1=O)=N\NC(=O)C(=O)NN | inactive: > 100 µM
13 | COC(=O)c1cc(C#N)[nH]c1-c1ccc(C)s1 | inactive: 51.3 µM
14 | CCOC(=O)C1(C(F)(F)F)N=C(CC)OC(N2CCOCC2)=N1 (configuration not stated) | inactive: > 100 µM
15 | COc1ccc(C2CC(c3c(O)ccc4ccccc34)=NN2c2ccc([N+](=O)[O-])cc2[N+](=O)[O-])cc1OC (configuration not stated) | inactive: 23.9 µM
16 | Cc1cc(S(=O)(=O)n2ccnc2Oc2cccc(Cl)c2)c(SSc2cc(Cl)c(C)cc2S(=O)(=O)n2ccnc2Oc2cccc(Cl)c2)cc1Cl | inactive: 16.4 µM
17 | CC1CC(=O)N(N(C)C)C(C#N)(C#N)C1(C#N)C#N (configuration not stated) | inactive: > 71.8 µM
18 | N#CC(C(=O)CCCC(=O)Nc1ccc(Cl)cc1Cl)c1ccc(Cl)cc1 (configuration not stated) | inactive: > 100 µM
19 | O=C(Cn1c2ccc(Br)cc2c2nc3ccccc3nc21)NNC(=O)NC1CCCCC1 | inactive: > 100 µM
20 | COc1ccc(O)c(C(=O)CCC(=O)O)c1 | inactive: > 100 µM
21 | ICC1CCCO1 (configuration not stated) | inactive: > 100 µM
22 | COc1cc(-c2oc(/C=N/c3ccccc3)c([N+](=O)[O-])c2-c2ccc(O)c(OC)c2)ccc1O | inactive: 41.9 µM
23 | C/C(CC(=O)Nc1cccc(Cl)c1C)=N\NC(N)=S | inactive: > 100 µM
24 | COc1c2c(cc3c1C1(O)Cc4ccc5c(c4C[N+]1(C)CC3)OCO5)OCO2 (configuration not stated) | inactive: 91.4 µM

Row | Structure (SMILES) | GI50
25 | O=C1C=C(Nc2ccc(Cl)cc2C(=O)c2ccccc2)c2ccccc2C1=O | inactive: > 100 µM
26 | COc1cc(CCNC2=CC(=O)c3cccnc3C2=O)ccc1O | inactive: 1.79 µM
27 | C/C(=N\N(C)C)C(CN(C)C)C(c1ccccc1)c1c(O)c2ccccc2oc1=O (configuration not stated) | inactive: > 100 µM
28 | CCOc1ccccc1NC(=O)C(C#N)C1=C(Cl)C(=O)c2ccccc2C1=O (configuration not stated) | inactive: 1.64 µM
29 | N#Cc1sc2c(c1OC(=O)c1ccc(Cl)cc1)c(=O)n(-c1ccccc1)c(=S)n2-c1ccccc1 | inactive: 30.1 µM
30 | CC(=O)CCCCC(=O)Nc1ccc(CC(NC(=O)OC(C)(C)C)C(=O)NCC(=O)OCc2ccccc2)cc1 (configuration not stated) | inactive: 37.1 µM
31 | C=C1CC/C=C(/C(=O)O)CC[C@H]2[C@@H]1CC2(C)C | inactive: > 100 µM
32 | NC(=O)C1C(=O)Oc2cccnc21 (configuration not stated) | inactive: > 100 µM
33 | O=C1CC2C(=O)C1C(C(=O)O)C2C(=O)O (configuration not stated) | inactive: > 100 µM
34 | O=C1c2cc(I)ccc2N2CCN=C2N1Cc1ccccc1 | inactive: > 100 µM
35 | CC1=CC[C@@]2(C)CC[C@](O)(C(C)C)C2C(OC(=O)c2ccccc2)C1 (some centres not stated) | inactive: 18.5 µM
36 | CN1C(=O)c2ccc3ccccc3c2C1=O | inactive: > 100 µM
37 | CC(=O)OCC1OC(n2c(C)c(C(C)=O)c(-c3cccc4ccccc34)c(C#N)c2=S)C(OC(C)=O)C(OC(C)=O)C1OC(C)=O (configuration not stated) | inactive: > 100 µM
38 | CC(=O)/C=N/CC(=O)O | inactive: > 100 µM
39 | COc1ccccc1/[N+]([O-])=C/c1ccccc1OC(=S)S | inactive: 73.1 µM
40 | CC(=O)OC12CC(C)C3(O)C4C=C(C)C(=O)[C@@]4(O)CC(CO)=C[C@H]3C1C2(C)C (some centres not stated) | inactive: > 10 µM
41 | O=C1CCCCC/C1=C\c1ccccc1 | inactive: > 100 µM
42 | c1cc(C[S+]2CCCC2)sc1C[S+]1CCCC1 | inactive: > 100 µM
43 | CC1(C)CCCC(C)(C2CCC3(C)C2C(O)CC2C4(C)CCC(O)C(C)(C)C4CCC23C)O1 (configuration not stated) | inactive: > 100 µM
44 | COc1c2nc(CCl)n(C)c(=O)c2c(OC)c2c(=O)n(C)c(CCl)nc12 | inactive: 2.47 µM
45 | Cc1cccc(-c2cc(O)c3cc(C)cnc3n2)c1 | active: 0.405 µM
46 | NCCCCNCCCN1CC1 | active: 0.236 µM
47 | CN1C/C(=C\c2cccs2)C2=NN(C)C(c3cccs3)C2C1 (configuration not stated) | inactive: > 100 µM
